# Results taken from PubChem BioAssay AID445 (National Center for Advancing Translational Sciences (NCATS), 2006).
# The whole screen tested about 110,000 compounds, of which about 40 (0.04%) were called active. The inconclusive results got no clear call from the source; some entries with a clear call stand among them for comparison. Calls come from the whole dose curve; as a rule, active = well fitted curve in the direction sought with a large enough effect in the signal ratio (not every such curve was filed as active); inconclusive = small, poorly fitted or top-dose-only effect, or a change in a side signal; inactive = flat fitted curve, though single readings scatter; the % refers to the signal ratio. Potencies of inconclusive entries are doubtful fits and often do not repeat. *1 amine or outer side, *2 acyl side, *3 side chain or, on linkers, in order; H or OH if unused. Where a SMILES comes first, the peptide text is derived from it. Bridges are numbered along the chain shown (N, C = ends). Roman numbers before positions name the chains, in order. [ ]: non-standard residue; d: D form. Actinocin(9to1) = Cc1c2oc3c(C)ccc(C(=O)[*:1])c3nc-2c(C(=O)[*:2])c(N)c1=O; aThr = C[C@H](O)[C@H](N)C(=O)O; NMeV = CN[C@H](C(=O)O)C(C)C; Sar = CNCC(=O)O
# Assay: IkB Signaling;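 for IkBa stabilization activation: 0% = basal untreated cells and 100% = reference inhibitor full response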
# Settings: ABC-DLBCL IkBa-CBG/CBR dual luciferase ratio (green luciferase fused to IkBa over red control in OCI-Ly3 lymphoma cells), 4 h; IkBa stabilization activation: at 57.1 µM (top of the series), scaled: untreated 0%, proteasome inhibitor 100% unless noted
# Method in brief: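 Luminescence ratio of IκBα-fused green versus native red beetle luciferase in OCI-Ly3 cells, 4 h post-doxycycline with compound; red signal alone, scaled from basal (0%) to zero light (-100%), flagged nonspecific or cytotoxic effects.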
# Potency is the fitted concentration of half-maximal effect.
Structure (SMILES),IkBa stabilization activation,Potency
CC(=O)N1CCc2cc(CNS(=O)(=O)c3ccc(Br)s3)ccc21,inconclusive: -0.349% [signal inhibitor],–
CCOC(=O)c1ccccc1NC(=O)c1ccc(NS(C)(=O)=O)cc1,inactive,–
CC1CCCN(Cc2cn3c(-c4cccc(Br)c4)nnc3s2)C1 (stereo not given),inconclusive: -1.45% [signal inhibitor],–
Cc1cccc(N2CCN(C(=O)COc3cc(=O)n(C)c4ccccc34)CC2)c1C,inconclusive: 11.4% [signal inhibitor],–
Cc1cccc(CNC(=O)C2CCN(c3nnc(-n4c(C)ccc4C)s3)CC2)c1,inconclusive: 0.641% [signal inhibitor],–
Cc1cc2oc(=O)c(CC(=O)O)c(C)c2c2occ(-c3ccc(F)cc3)c12,inconclusive: -0.467% [signal inhibitor],–
CCN1C(=O)C2(Nc3ccccc3-c3nc4ccccc4n32)c2cc(OC)ccc21 (stereo not given),inconclusive: -2.12% [signal inhibitor],–
O=C(c1ccc2c(c1)OCCO2)N(Cc1cccnc1)c1nc2c(F)cccc2s1,inconclusive: 4.67% [signal inhibitor],–
Cc1cccc(-c2noc(CN(C(=O)c3ccccc3Cl)C(C)C)n2)c1,inconclusive: 3.17% [signal inhibitor],–
COc1ccc(CCNC(=O)CCCn2c(=O)c3ccccc3n(Cc3ccc(F)cc3Cl)c2=O)cc1OC,inconclusive: -1.01% [signal inhibitor],–
Cn1c(C(=O)NCCc2ccccc2)cc2c(=O)n3ccccc3nc21,inconclusive: 3.23% [signal inhibitor],–
CCS(=O)(=O)N1CCc2cc(C(=O)Nc3cccc(Cl)c3C)ccc21,inconclusive: -1.44% [signal inhibitor],–
COc1ccccc1C(=O)NCCn1cc(SCC(=O)Nc2cc(C)on2)c2ccccc21,inconclusive: -2.24% [signal inhibitor],–
COc1ccc(Nc2nnc(Cc3ccc(Cl)cc3)c(=O)[nH]2)c(OC)c1,inconclusive: 5.6% [signal inhibitor],–
Cc1cc(C)c2c(CC(=O)Nc3ccc(Cl)cn3)coc2c1,inconclusive: 5.8% [signal inhibitor],–
Cc1ccc(CSCc2ccc(C(=O)NCCc3ccc(Cl)cc3)o2)cc1,inconclusive: 4.63% [signal inhibitor],–
Cc1cc(C)cc(N2C(=O)CSC23C(=O)N(CC(=O)NCCc2ccccc2)c2ccccc23)c1 (stereo not given),inconclusive: 1.33% [signal inhibitor],–
CCOC(=O)C1=C(CS(=O)(=O)c2ccc(C)cc2)NC(=O)NC1c1ccc(C(C)C)cc1 (stereo not given),inconclusive: 1.01% [signal inhibitor],–
COc1ccccc1NCc1cccn1-c1nnc(N2CCOCC2)s1,inconclusive: 4.19% [signal inhibitor],–
CCOc1ccc(C2=Nn3c(nnc3-c3ccccc3)SC2)cc1Cl,inactive,–
Cc1oc2ncn(C)c(=O)c2c1C(=O)NC(C)c1ccccc1 (stereo not given),inactive,–
Cc1ccc(C)c(CN2C(=O)CSc3ccc(C(=O)NCc4ccc(F)cc4)cc32)c1,inconclusive: 2.19% [signal inhibitor],–

Structure (SMILES),IkBa stabilization activation,Potency
Cc1nnc(NC(=O)C2(c3ccccc3)CCOCC2)s1,inactive,–
CC(=O)[C@@]1(O)CC[C@H]2[C@H]3C[C@@H](C)C4=CC(=O)C=C[C@]4(C)[C@@]3(F)[C@@H](O)C[C@]21C,inactive,–
COc1ccc(OCC(=O)Nc2ccc3c(c2)nc2n3CCSC2)cc1,inactive,–
O=C(O)CCNS(=O)(=O)c1ccc2c(c1)Cc1ccccc1-2,–,"inconclusive: 15.8 µM [signal inhibitor, partial curve]"
CCC(OC(=O)CCc1nc2ccccc2[nH]c1=O)C(=O)c1ccccc1 (stereo not given),inconclusive: 2.37% [signal inhibitor],–
COc1cccc(-c2nn(C)c3sc(C(=O)NCCc4ccc(Cl)cc4)cc23)c1,inconclusive: 3% [signal inhibitor],–
Cc1cccc(N2CCN(c3cc(C)nc4c(-c5ccc(Cl)cc5)c(C)nn34)CC2C)c1 (stereo not given),inactive,–
CCOc1ccc(NC(=O)NCCCN2CCN(c3ccc(F)cc3)CC2)cc1,inconclusive: 0.43% [signal inhibitor],–
O=C(O)C1Nc2c(O)cccc2C2C=CCC12 (stereo not given),inconclusive: 5.25% [signal inhibitor],–
COC(=O)Cc1cc(=O)n(-c2nc3ccccc3[nH]2)[nH]1,inactive,–
Cn1c(C(=O)N(Cc2ccccc2)Cc2cccs2)cc2sccc21,inactive,–
CCc1ccc2occ(CC(=O)Nc3c(C(=O)Nc4ccc(C)cc4)oc4ccccc34)c2c1,inconclusive: 0.894% [signal inhibitor],–
COC(=O)c1c(SCC(=O)Nc2cc(C)cc(C)c2)[nH]c2ccccc2c1=O,inconclusive: -0.479% [signal inhibitor],–
Cc1ccc(C)c(CN2C(=O)c3ccccc3S(=O)(=O)c3ccc(C(=O)N4CCCCCC4)cc32)c1,inconclusive: 1.35% [signal inhibitor],–
O=C(c1ccccc1F)N1CCN(c2ccccc2F)CC1,inactive,–
Cc1csc(C(C#N)C(=O)c2cc3ccccc3o2)n1 (stereo not given),–,"inconclusive: 15.8 µM [signal inhibitor, partial curve]"
COc1cccc(NC(=O)CSc2ncc(S(=O)(=O)c3ccc(C)c(C)c3)c(=O)[nH]2)c1,inconclusive: -0.275% [signal inhibitor],–
Cc1ccc2c(c1)N(CC(=O)N1CCN(c3nc4ccccc4s3)CC1)C(=O)C(C)O2 (stereo not given),inconclusive: 4.13% [signal inhibitor],–
CCc1ccc(NC(=O)CSc2nnc(Cc3cccn3C)n2-c2ccc(OC)cc2)cc1,inconclusive: 1.69% [signal inhibitor],–
Cc1ccccc1OCC(=O)OCc1cc(=O)n2nc(C3CCCCC3)sc2n1,inactive,–
"Cc1c2oc3c(C)ccc(C(=O)N[C@@H]4C(=O)N[C@@H](C(C)C)C(=O)N5CCC[C@@H]5C(=O)N(C)CC(=O)N(C)[C@@H](C(C)C)C(=O)O[C@H]4C)c3nc-2c(C(=O)N[C@@H]2C(=O)N[C@@H](C(C)C)C(=O)N3CCC[C@@H]3C(=O)N(C)CC(=O)N(C)[C@@H](C(C)C)C(=O)O[C@H]2C)c(N)c1=O (I: [aThr]V[dP][Sar][NMeV] / II: [aThr]V[dP][Sar][NMeV]; ester I:1-I:C, II:1-II:C; linker I:N-II:N via Actinocin(9to1))",inconclusive: 0.128% [signal inhibitor],–
OC(C#Cc1ccccn1)c1cccs1 (stereo not given),–,"inconclusive: 25.1 µM [rising, partial curve]"

Structure (SMILES),IkBa stabilization activation,Potency
COc1ccc(NC(=O)c2oc3ccccc3c2NC(=O)c2cc3ccccc3o2)cc1,inconclusive: 2.13% [signal inhibitor],–
CCc1ccc(NS(=O)(=O)c2ccc3[nH]cc(C(=O)NCC4CCCO4)c(=O)c3c2)cc1 (stereo not given),inconclusive: 6.61% [signal inhibitor],–
Cc1ccccc1S(=O)(=O)Cc1ccc(C(=O)NC2CCCCC2)o1,inconclusive: -1.68% [signal inhibitor],–
CC(=O)Nc1ccc2oc(-c3ccccc3Br)nc2c1,inactive,–
Cc1ccc(OC(=O)c2cc(-c3ccc4c(c3)OCCO4)on2)cc1C,inconclusive: 4.25% [signal inhibitor],–
COc1ccc(OC)c2c(=S)c3ccccc3[nH]c12,inconclusive: 2.61% [signal inhibitor],–
CCOc1ccc(NC(=O)CSc2nnc3scc(-c4ccc(Cl)cc4)n23)cc1,inconclusive: 12.6% [signal inhibitor],–
CCOc1cccc2cc(-c3nc4ccc(C(=O)O)cc4[nH]3)c(=O)oc12,–,"inconclusive: 0.631 µM [signal inhibitor, partial curve]"
COc1ccc(C)cc1S(=O)(=O)N1CCN(c2cccc(Cl)c2)CC1,inconclusive: 0.462% [signal inhibitor],–
Cc1c(O)ccc2c3c(c(=O)oc12)CCC(C)C3 (stereo not given),inconclusive: 0.901% [signal inhibitor],–
COc1ccc(Nc2ncc(C(=O)N3CCN(c4cccc(Cl)c4)CC3)c3ccccc23)cc1,inconclusive: 2.32% [signal inhibitor],–
Cc1ccc(C)c(-n2c(CCC(=O)O)ccc2-c2ccc(Cl)cc2)c1,inconclusive: 4.69% [signal inhibitor],–
COCCn1ccc2c(OCC(=O)Nc3cccc(OC)c3)cccc2c1=O,–,"inconclusive: 25.1 µM [signal inhibitor, single point]"
Cc1ccc(Cl)cc1N1CCN(C(=O)COc2ccc(S(=O)(=O)NC(C)C)cc2)CC1,inconclusive: 5.96% [signal inhibitor],–
COc1ccc(CNC(=O)c2c(O)nc3cc(C)ccn3c2=O)cc1,inconclusive: 2.04% [signal inhibitor],–
CCc1ccc2ncc3c(-c4ccc(F)cc4)nn(CC(=O)NCc4ccccc4)c3c2c1,inconclusive: 1.72% [signal inhibitor],–
Cc1ccc(C(C)C)c(OCC(=O)Nc2ccc(C(=O)OC3CCCCC3)cc2)c1,inactive,–
COc1cccc(CNC(=O)Cc2ccc(NC(=O)N3CCCCc4ccccc43)cc2)c1OC,inconclusive: 1.53% [signal inhibitor],–
COc1cc(NC(=O)CCc2nc(-c3cccs3)no2)cc(OC)c1OC,inconclusive: 9.67% [signal inhibitor],–
O=C(c1ccccc1)c1nc[nH]c1C(=O)Nc1ccccc1,–,"inconclusive: 20 µM [signal inhibitor, partial curve, poor fit]"
c1coc(-c2nnc(SCc3nc4ccccc4[nH]3)o2)c1,inconclusive: 4.95% [signal inhibitor],–
